# Several values for one entry are separate records, joined by “and”; a condition that tells them apart may be missing. Equal values may be shown once. Read-outs that look alike come from different tables or passages of the source.
# Assays:
# [1] = biological target: R. norvegicus MCT1 (F360C) (UniProt P36035+P53987, F360C); test: High throughput assay optimization and validation (96/384-well, AZD3965 versus DMSO, Z-factor)
# [2] = system: R. norvegicus MCT1 (F360C); test: as above; details: for OD600 AVG: 10 μM, 24 hours
# [3] = biological target: T1, R. norvegicus MCT1 (F360C) (UniProt P36035+P53987, F360C); type: cell-based
# T1 sequence (P36035+P53987 with tags, fused parts or gaps P53987:F360C): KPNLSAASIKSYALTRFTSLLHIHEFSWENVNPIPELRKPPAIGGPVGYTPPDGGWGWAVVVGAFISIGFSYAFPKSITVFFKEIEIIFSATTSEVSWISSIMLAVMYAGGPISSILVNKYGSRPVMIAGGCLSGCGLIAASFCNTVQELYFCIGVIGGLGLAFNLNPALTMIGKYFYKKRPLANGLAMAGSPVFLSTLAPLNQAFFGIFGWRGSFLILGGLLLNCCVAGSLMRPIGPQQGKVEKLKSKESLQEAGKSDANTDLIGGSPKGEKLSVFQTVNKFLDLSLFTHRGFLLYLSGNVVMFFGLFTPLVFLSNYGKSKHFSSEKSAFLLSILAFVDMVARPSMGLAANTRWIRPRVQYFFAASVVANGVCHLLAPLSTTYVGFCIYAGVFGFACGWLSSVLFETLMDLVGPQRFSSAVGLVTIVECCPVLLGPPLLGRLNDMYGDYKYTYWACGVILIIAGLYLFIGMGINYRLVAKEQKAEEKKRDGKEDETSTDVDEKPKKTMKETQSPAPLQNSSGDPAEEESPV
compound,measurement,setting,value
Cc1[nH]nc(C(F)(F)F)c1Cc1sc2c(c1C(=O)N1C[C@](C)(O)CO1)c(=O)n(C)c(=O)n2C(C)C [AZD3965],growth in continuous darkness,"[1]; 384-well, 48-hour period non-permissive (Fig 3C)",do not recover growth
same,growth after transfer to permissive blue light,"[1]; 384-well, 24 h non-permissive then 24 h permissive (Fig 3C)",rescues the growth
same,OD600 average of 10 wells,"[1]; SAWy741 (MCT1), AZD3965 10 μM, non-permissive, 384-well 50 μl without shaking, three independent replicates (S7 Fig), listed as AZD",0.131 and 0.1123 and 0.1286
same,mean plate reading (10 wells),"[1]; strain SAWy741, Replicate1 second read, left at non-permissive conditions throughout",0.7466
same,mean plate reading (10 wells),"[1]; strain SAWy741, non-permissive phase, first read, Replicates 1-3, listed as AZD",0.131 and 0.1123 and 0.1286
same,mean plate reading (10 wells),"[1]; strain SAWy741, perm (permissive) phase, second read, Replicates 2, 3, listed as AZD",0.7973 and 0.8192
same,OD600 AVG,"[2]; 96-well, Non-shaking + breathe-right, Volume 50, SAWy710 (empty vector)",0.0547
same,OD600 AVG,"[2]; 96-well, Non-shaking + breathe-right, Volume 50, SAWy738 (MCT1)",0.07155
same,OD600 AVG,"[2]; 96-well, Non-shaking + breathe-right, Volume 100, SAWy710 (empty vector)",0.06775
same,OD600 AVG,"[2]; 96-well, Non-shaking + breathe-right, Volume 100, SAWy738 (MCT1)",0.09475
same,OD600 AVG,"[2]; 96-well, Non-shaking + breathe-right, Volume 200, SAWy710 (empty vector)",0.0846
same,OD600 AVG,"[2]; 96-well, Non-shaking + breathe-right, Volume 200, SAWy738 (MCT1)",0.1187
same,OD600 AVG,"[2]; 96-well, Non-shaking, Volume 50, SAWy710 (empty vector)",0.05153
same,OD600 AVG,"[2]; 96-well, Non-shaking, Volume 50, SAWy738 (MCT1)",0.06245
same,OD600 AVG,"[2]; 96-well, Non-shaking, Volume 100, SAWy710 (empty vector)",0.07205
same,OD600 AVG,"[2]; 96-well, Non-shaking, Volume 100, SAWy738 (MCT1)",0.09025
same,OD600 AVG,"[2]; 96-well, Non-shaking, Volume 200, SAWy710 (empty vector)",0.09027
same,OD600 AVG,"[2]; 96-well, Non-shaking, Volume 200, SAWy738 (MCT1)",0.1228
same,OD600 AVG,"[2]; 96-well, Shaking, Volume 50, SAWy710 (empty vector)",0.0545
same,OD600 AVG,"[2]; 96-well, Shaking, Volume 50, SAWy738 (MCT1)",0.0612
same,OD600 AVG,"[2]; 96-well, Shaking, Volume 100, SAWy710 (empty vector)",0.0709
same,OD600 AVG,"[2]; 96-well, Shaking, Volume 100, SAWy738 (MCT1)",0.07047
same,OD600 AVG,"[2]; 96-well, Shaking, Volume 200, SAWy710 (empty vector)",0.1137
same,OD600 AVG,"[2]; 96-well, Shaking, Volume 200, SAWy738 (MCT1)",0.1566
same,OD600 AVG,"[2]; 384-well, Non-shaking + breathe-right, 25 ul, SAWy710 (empty vector)",0.07738
same,OD600 AVG,"[2]; 384-well, Non-shaking + breathe-right, 25 ul, SAWy738 (MCT1)",0.09315
same,OD600 AVG,"[2]; 384-well, Non-shaking + breathe-right, 50 ul, SAWy710 (empty vector)",0.103
same,OD600 AVG,"[2]; 384-well, Non-shaking + breathe-right, 50 ul, SAWy738 (MCT1)",0.155
same,OD600 AVG,"[2]; 384-well, Non-shaking + breathe-right, 100 ul, SAWy710 (empty vector)",0.1367
same,OD600 AVG,"[2]; 384-well, Non-shaking + breathe-right, 100 ul, SAWy738 (MCT1)",0.2457
same,Z-score versus SAWy710 DMSO treatment (average),"[2]; 384-well, Non-shaking + breathe-right, Volume 50, SAWy710",0.2346
same,Z-score versus SAWy710 DMSO treatment (average),"[2]; 384-well, Non-shaking + breathe-right, Volume 50, SAWy738",7.403
same,OD600 AVG,"[2]; 384-well, Non-shaking, 25 ul, SAWy710 (empty vector)",0.06877
same,OD600 AVG,"[2]; 384-well, Non-shaking, 25 ul, SAWy738 (MCT1)",0.08127
same,OD600 AVG,"[2]; 384-well, Non-shaking, 50 ul, SAWy710 (empty vector)",0.09715
same,OD600 AVG,"[2]; 384-well, Non-shaking, 50 ul, SAWy738 (MCT1)",0.1407
same,OD600 AVG,"[2]; 384-well, Non-shaking, 100 ul, SAWy710 (empty vector)",0.1266
same,OD600 AVG,"[2]; 384-well, Non-shaking, 100 ul, SAWy738 (MCT1)",0.2447
same,Z-score versus SAWy710 DMSO treatment (average),"[2]; 384-well, Non-shaking, Volume 50, SAWy710",-0.5592
same,Z-score versus SAWy710 DMSO treatment (average),"[2]; 384-well, Non-shaking, Volume 50, SAWy738",3.431
same,OD600 AVG,"[2]; 384-well, Shaking, 25 ul, SAWy710 (empty vector)",0.08755
same,OD600 AVG,"[2]; 384-well, Shaking, 25 ul, SAWy738 (MCT1)",0.09823
same,OD600 AVG,"[2]; 384-well, Shaking, 50 ul, SAWy710 (empty vector)",0.09387
same,OD600 AVG,"[2]; 384-well, Shaking, 50 ul, SAWy738 (MCT1)",0.1292
same,OD600 AVG,"[2]; 384-well, Shaking, 100 ul, SAWy710 (empty vector)",0.1287
same,OD600 AVG,"[2]; 384-well, Shaking, 100 ul, SAWy738 (MCT1)",0.2147
same,OD600 average of 10 wells,"[2]; SAWy710 (empty vector), AZD3965 10 μM, non-permissive, 384-well 50 μl without shaking, three independent replicates (S7 Fig), listed as AZD",0.1099 and 0.1063 and 0.09977
same,mean plate reading (10 wells),"[2]; strain SAWy710, Replicate1 second read, left at non-permissive conditions throughout",0.1838
same,mean plate reading (10 wells),"[2]; strain SAWy710, non-permissive phase, first read, Replicates 1-3, listed as AZD",0.1099 and 0.1063 and 0.09977
same,mean plate reading (10 wells),"[2]; strain SAWy710, perm (permissive) phase, second read, Replicates 2, 3, listed as AZD",0.7846 and 0.7825
COc1c(O)cc2oc3cc(O)c(CC=C(C)C)c(O)c3c(=O)c2c1CC=C(C)C [alpha-MANGOSTIN],Fraction,[3]; 10 μM,0.4127
same,Percent AZD3965,[3]; 10 μM,51.3584%
same,Z.score,[3]; 10 μM,-4.281
COc1c(O)cc2oc3cc(O)c(CC=C(C)C)c(O)c3c(=O)c2c1CC=C(C)C [alpha-mangostin],Day1,[3],0.3553
same,Day2,[3],0.861
same,Fraction,[3],0.4127
same,Offtarget_sub,[3],0.2019
same,Percent,[3],51.3584%
same,Z.score,[3],-4.281
"Cc1cccc(Nc2ccccc2C(=O)O)c1C [mefenamic acid, reference compound]",Percent AZD3965,[3],-1.599%
same,Z-score,[3],0.1459
Erythrosine,Day1,[3],0.2221
same,Day2,[3],0.7974
same,Fraction,[3],0.2785
same,Offtarget_sub,[3],0.0608
same,Percent,[3],79.5231%
same,Z.score,[3],-9.564
Loxoprofen,Percent AZD3965,[3],-3.102%
same,Z-score,[3],0.1484
OXYCLOZANIDE,Day1,[3],0.1981
same,Day2,[3],0.8387
same,Fraction,[3]; 10 μM,0.2362
same,Percent AZD3965,[3]; 10 μM,84.9348%
same,Z.score,[3]; 10 μM,-4.286
YM155,Day1,[3],0.2126
same,Day2,[3],0.8959
same,Fraction,[3],0.2373
same,Percent AZD3965,[3],82.5642%
same,Z.score,[3],-3.377

# Source: paper PMC11637378, “Optogenetic screening of MCT1 activity implicates a cluster of non-steroidal anti-inflammatory drugs (NSAIDs) as inhibitors of lactate transport” (PLOS ONE, 2024)
